PubChem BioAssay AID686971 (National Center for Advancing Translational Sciences (NCATS), 2013)
Where “and” joins values, the source holds several entries; their conditions need not be identical. Equal entries are not always repeated. Hit rate of the full screen: of about 360,000 compounds, about 7,500 (2.1%) were called active. The inconclusive results got no clear call from the source; some entries with a clear call stand among them for comparison. The call rests on the fitted dose curve; in most records, active means well fitted cell-killing curve with a large enough effect; inconclusive means small, poorly fitted or top-dose-only effect, or effect the other way, or another doubt; inactive means no such curve, though single readings can be large or run the other way. Potencies beside an inconclusive call are fits to weak or partial responses and may not hold up.

Experiment: qHTS for induction of synthetic lethality in tumor cells producing 2HG: qHTS for the HT-1080-IDH1KD cell line;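 on activity, negative = toxicity: 0% = DMSO wells and -100% = cell-free medium wells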
Conditions: HT-1080 IDH1 knockdown viability, ATP luminescence, 48 h; activity, negative = toxicity: at 46.1 µM (top of the series) unless noted
Outline: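 After a 2 h attachment period, IDH1KD HT-1080 cells took pin-transferred compound for 48 h at 37 °C; ATP-based luminescence after 10 min room-temperature reagent incubation reported viability.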
Potency means the concentration at half of the fitted maximal effect; tags describe the fitted curve by direction and shape.

Compound | activity, negative = toxicity | Potency
Cc1cccc(NC(=S)N2CCC(NC(=O)c3ccco3)CC2)c1 | inactive: 11.7% | 
COc1cccc(N=Cc2c[nH][nH]c2=O)c1 |  | inconclusive: 32.6 µM [cytotoxic, single point]
O=C(CC1C(=O)N(c2ccc(Cl)cc2)C(=S)N1CCc1ccncc1)Nc1ccc(F)cc1 (stereo not given) |  | inconclusive: 15.8 µM [cytotoxic, single point]
CC(C)(C(N)=O)N1CCN(c2ncc(C(F)(F)F)cc2Cl)CC1 |  | inconclusive: 23.1 µM [cytotoxic, single point]
CC(C)CN(C(=O)COc1ccc2ccc(=O)oc2c1)C1CCS(=O)(=O)C1 (stereo not given) | inactive: -3.46% | 
COc1ccc(-c2oc3ccc(N4CCOCC4)cc3c2C#CCO)cc1 |  | inconclusive: 29.1 µM [cytotoxic, single point]
Cc1nc2ccccn2c1C(=O)NC1CCCc2ccccc21 (stereo not given) | inactive: -8.11% | 
COc1ccc(CNC(=O)C2CCCN(c3nc4ccccc4o3)C2)c(OC)c1 (stereo not given) |  | inconclusive: 20 µM [cytotoxic, single point]
Cc1cc2cc(C)c3nnc(SCC(=O)NCc4ccc5c(c4)OCO5)n3c2cc1C | inactive: 3.43% | 
CCC1C/C(=C\c2cccnc2)C(=O)/C(=C/c2cccnc2)C1 (stereo not given) |  | inconclusive: 2.31 µM [cytotoxic, partial curve, poor fit]
O=C(Nc1ccncc1)c1cn(-c2ccccc2)nc1-c1cccs1 |  | inconclusive: 13 µM [cytotoxic, single point]
CC1OC(C2CCCCC2)Cc2[nH]c(=S)[nH]c(=O)c21 (stereo not given) | inactive: 0.0969% | 
COc1ccc(/C=N\NC(=O)c2c(C)nc3ccc(Br)cn23)cc1 |  | active: 0.58 µM
CCCCCCCCNS(=O)(=O)CCNCc1ccc(OC)cc1 |  | inconclusive: 16.4 µM [cytotoxic, single point]
CCOc1ccc(CN(C)C(=O)CNC(=O)c2ccc(Br)o2)cc1OC | inconclusive: -34.9% [cytotoxic] | 
O=C(c1ccc(Cl)cc1)c1cnc(Nc2ccccc2Cl)s1 |  | inconclusive: 35.5 µM [cytotoxic, single point]
Cc1ccc(OCCCCNC2CCCC(C)C2C)c(C)c1 (stereo not given) |  | inconclusive: 23.1 µM [cytotoxic, single point]
Cc1ccc(NC(=O)Cn2ncc(Cl)c(Cl)c2=O)cc1S(=O)(=O)N1CCCCC1 |  | inconclusive: 16.4 µM [cytotoxic, single point]
COc1cc(NC(=O)c2cc3c(=O)n(C)c4ccccc4c3n2C)cc(OC)c1OC |  | inconclusive: 29.1 µM [cytotoxic, single point]
COc1ccc(O)c(-c2cc(-c3cccs3)[nH]n2)c1 |  | inconclusive: 29.1 µM [cytotoxic, single point]
OCCCNc1nc(-c2ccccc2)nc2c1oc1ccccc12 |  | inconclusive: 29.1 µM [cytotoxic, single point]
COc1ccc(NC(=O)c2ccco2)c2ccccc12 | inactive: -1.8% | 
COc1cc(C)c(Br)cc1S(=O)(=O)NCc1ccncc1 |  | inconclusive: 16.4 µM [cytotoxic, partial curve, poor fit]
COc1cc2c(cc1OC)CN(c1ccc(-c3ccccc3OC)nn1)CC2 | inactive: -12% | 
Cc1ccc(N(C(=O)c2csnn2)C(C(=O)NCc2ccccc2)c2cccnc2)cc1 (stereo not given) | inactive: -6.99% | 

Compound | activity, negative = toxicity | Potency
Cc1cc(Nc2ccc(Cl)cc2)nc(NCc2ccccc2)n1 |  | inconclusive: 20.6 µM [cytotoxic, single point]
CCCCN(C)C(=O)c1ccc(Nc2nc(C(N)CCc3ccccc3)cs2)nc1 (stereo not given) |  | active: 23.1 µM
CSc1ccc(C2NC(=O)c3ccccc3N2)cc1 (stereo not given) |  | active: 9.2 µM
CCC(C)c1ccc(NC(=O)c2cccs2)cc1 (stereo not given) |  | inconclusive: 35.5 µM [cytotoxic, single point]
Cc1ccc(CO/N=C\Cc2snc(Sc3ncc(C(F)(F)F)cc3Cl)c2C#N)cc1 | inactive: -0.159% | 
Cc1cccc(NC2=C(Cl)C(=O)OC2OC(=O)c2ccco2)c1 (stereo not given) | inactive: -8.71% | 
O=C(Nc1ccc(Cl)cc1)Nc1ccccc1C(=O)O | inconclusive: -30% [cytotoxic] | 
Oc1ccccc1C(Nc1nccs1)c1ccc2cccnc2c1O (stereo not given) |  | active: 7.31 µM
COc1ccc(Nc2nccc(-c3cccc(N)c3)n2)cc1 |  | inconclusive: 20.6 µM [cytotoxic, single point]
Cn1ncc2c(Nc3cc(Cl)cc(Cl)c3)ncnc21 | inactive: 3.69% | 
CCC(C(=O)NCCc1ccc(S(N)(=O)=O)cc1)c1ccccc1 (stereo not given) | inactive: 15.1% | 
O=C(c1cccc2ccccc12)C1CCCN(C(=O)c2ccc(N3CCOCC3)cc2)C1 (stereo not given) |  | inconclusive: 14.6 µM [cytotoxic, partial curve]
CCN(C(=O)COC(=O)c1ccc(OCc2c(C)noc2C)cc1)c1ccccc1 | inactive: -3.09% | 
CCOC(=O)[C@]12CCC=C1N(Cc1ccccc1)C(=O)[C@H](CC(=O)NCCCCc1ccccc1)C2 |  | inconclusive: 29.1 µM [cytotoxic, single point]
CC(=O)n1cc(N(C(=O)CCl)c2ccccc2)c2ccccc21 |  | active: 2.59 µM
COc1ccccc1N1CCN(C(=O)c2ccc(Cl)c(S(=O)(=O)NCc3ccco3)c2)CC1 |  | active: 7.08 µM
C/C(=N/NC(=O)c1ccc(C)nc1)c1ccc2c(c1)CCCC2 |  | active: 23.1 µM
Cc1ccc(NC(=O)Cn2c(/C=C/c3ccccc3)nc3ccccc32)cc1C |  | inconclusive: 20.6 µM [cytotoxic, single point]
Cc1ccc(-c2nn3c(C)nnc3s2)cc1NC(=O)c1ccc(-c2cccc(Cl)c2)o1 |  | inconclusive: 11.2 µM [cytotoxic, partial curve] and inconclusive: 18.4 µM [cytotoxic, single point]
COc1cccc(/C(O)=C/c2nc3ccc(C(=O)NCCc4ccc(Cl)cc4)cc3[nH]c2=O)c1 |  | inconclusive: 23.1 µM [cytotoxic, partial curve, poor fit]
COc1ccc(C=C2SC(=O)NC2=O)cc1OC | inactive: -22.6% | 
COc1cc([N+](=O)[O-])cc(/C=N/NC(=O)Cn2nc(C)cc2C)c1O |  | inconclusive: 18.4 µM [cytotoxic, single point]
O=C(/C=C\c1cccs1)c1c(O)ccc2ccc(=O)oc12 |  | active: 23.1 µM
N#C/C(=C\c1cc([N+](=O)[O-])ccc1Cl)C(N)=O |  | inconclusive: 23.1 µM [cytotoxic, partial curve]
Cc1ccc(Cl)cc1N1CCN(C(c2cccnc2)c2nnnn2C2CCCCC2)CC1 (stereo not given) | inactive: -4.66% | 

Compound | activity, negative = toxicity | Potency
CC(NCCC1(Cc2ccccc2Cl)CCOC(C)(C)C1)c1cccs1 (stereo not given) |  | inconclusive: 23.1 µM [cytotoxic, single point]
CCOc1ccc(N2CC(C(=O)NC3=NCCS3)CC2=O)cc1 (stereo not given) | inactive: -3.6% | 
CCOC(=O)c1c(NC(=O)c2ccnn2C)sc(C)c1C | inactive: 23.1% | 
CCCc1nc2ccccc2c(C(=O)OCC(=O)Nc2ccc(S(=O)(=O)N3CCOCC3)cc2)c1CC |  | active: 10 µM
CCn1c(SC(C)C(=O)NCC2CCCO2)nc2scc(-c3ccccc3)c2c1=O (stereo not given) | inactive: 1.07% | 
Cc1onc(-c2ccccc2)c1C(=O)NC(=S)NNC(=O)c1ccco1 |  | inconclusive: 8.2 µM [cytotoxic, partial curve]
C[n+]1cc[nH]c1SCC(=O)c1ccc(Cl)cc1 |  | inconclusive: 23.1 µM [cytotoxic, single point]
Cc1ccc(N(Cc2cc(=O)[nH]c3ccccc23)C(=O)CCl)cc1 |  | active: 20.6 µM
COc1c(C(CC(C)C)OC(C)=O)ccc2c1C(=O)OCc1cc(C)cc(O)c1O2 (stereo not given) |  | inconclusive: 20.6 µM [cytotoxic, single point]
CC(C)c1ccc(/C=N/NC(=O)c2nnn(-c3nonc3N)c2CSC2=NCCS2)cc1 |  | inconclusive: 29.1 µM [cytotoxic, single point]
Cc1ccc(CNc2nc3cc(-c4ccccc4C)sc3c(=O)n2C)c(C)c1 |  | inconclusive: 11.6 µM [cytotoxic, partial curve]
CC1=CC(C)(C)Nc2ccccc21 |  | inconclusive: 18.4 µM [cytotoxic, single point]
CCOc1ccc(NC(=O)c2ccco2)c([N+](=O)[O-])c1 |  | inconclusive: 13 µM [cytotoxic, partial curve]
CCN1CCN(CCCNC(=O)c2ccc3c(Cl)c4c(nc3c2)CCCC4)CC1 |  | inconclusive: 20.6 µM [cytotoxic, single point]
N#C/C(=C(/O)CCl)c1nc2ccccc2[nH]1 |  | inconclusive: 20.6 µM [cytotoxic, single point]
CCc1ccc(C(O)c2ncc(-c3ccc(C(F)(F)F)cc3)[nH]2)cc1 (stereo not given) | inactive: 7.02% | 
O=C(NCC1CCCCC1)c1cc(-c2cc(F)ccc2OCC2CCCO2)n[nH]1 (stereo not given) |  | inconclusive: 29.1 µM [cytotoxic, single point]
CCOC(=O)c1cc2sccc2n1CC(=O)O |  | inconclusive: 35.5 µM [rising, single point]
O=C(NCCc1ccccc1)c1noc2c1CCCCC2 |  | inconclusive: 25.1 µM [cytotoxic, single point]
c1coc(CSc2ncnc3c2oc2ccccc23)c1 | inactive: -11.8% | 
Cc1ccc(-c2nn3c(C)nnc3s2)cc1NC(=O)c1ccc(Br)o1 | inactive: 5.42% | 
CC1CN=C(Nc2cccc(S(=O)(=O)N(C)C)c2)S1 (stereo not given) | inactive: 0.36% | 
CCCCc1ncc(CN2CCN(Cc3ccc(C)cc3)C(CCO)C2)[nH]1 (stereo not given) | inactive: -3.09% | 
Cc1ccc(C2=Nc3ccccc3N=C(C(Cl)Cl)C2)cc1 |  | inconclusive: 29.1 µM [cytotoxic, single point]
CN(CCCNC(=O)c1cccn2c(=O)c3ccccc3nc12)Cc1ccccc1 |  | active: 20 µM
